The text below walks through data of patent US11618753B2 (priority 2018, dated 2023).

Broadly, the IC50 is the point on the concentration scale where inhibition reaches its midpoint.

The test system of this assay is MLKL phosphorylation, HT29-L23 human colorectal adenocarcinoma cells. Put plainly: cells. The following applies: read-out: pMLKL HCS Cell Assay (IC50, uM).
For `Cc1cc(F)c(-c2cc(C(F)(F)F)c3c(N)ncnn23)cc1C(=O)N[C@@H]1CN(C(=O)CC(C(F)(F)F)C(F)(F)F)C[C@@H]1F` [Example 799, 5-[4-amino-5-(trifluoromethyl)pyrrolo[2,1-f][1,2,4]triazin-7-yl]-4-fluoro-N-[(3R,4S)-4-fluoro-1-[4,4,4-trifluoro-3-(trifluoromethyl)butanoyl]pyrrolidin-3-yl]-2-methylbenzamide], the IC50 is 0.0048 µM.

As to `COc1ncc(-c2c(C#N)cc3c(N)ncnn23)cc1C(=O)Nc1cnn(Cc2ccccc2)c1` [Example 550, 5-(4-amino-6-cyanopyrrolo[2,1-f][1,2,4]triazin-7-yl)-N-(1-benzyl-1H-pyrazol-4-yl)-2-methoxynicotinamide], the IC50 turned out to be 0.00085 µM.

Take `C[C@@](O)(C(=O)N1C[C@H](F)[C@H](NC(=O)c2cc(-c3cc(C(F)(F)F)c4c(N)ncnn34)ccc2OCC(F)(F)F)C1)C(F)(F)F` [Example 1066, 5-[4-amino-5-(trifluoromethyl)pyrrolo[2,1-f][1,2,4]triazin-7-yl]-N-[(3R,4S)-4-fluoro-1-[(2R)-3,3,3-trifluoro-2-hydroxy-2-methylpropanoyl]pyrrolidin-3-yl]-2-(2,2,2-trifluoroethoxy)benzamide]: the IC50 worked out at 0.016 µM.

As to `Nc1ncnn2c(-c3ccc(OCC(F)(F)F)c(C(=O)N[C@@H]4CN(C(=O)c5ccccc5F)C[C@@H]4F)c3)cc(C(F)(F)F)c12` [Example 1076, 5-[4-amino-5-(trifluoromethyl)pyrrolo[2,1-f][1,2,4]triazin-7-yl]-N-[(3R,4S)-4-fluoro-1-(2-fluorobenzoyl)pyrrolidin-3-yl]-2-(2,2,2-trifluoroethoxy)benzamide], the IC50 worked out at 0.222 µM.

For `CC(C)(O)C(=O)N1C[C@H](F)[C@H](NC(=O)c2cccc(-c3cc(CN4CC(F)(F)C4)c4c(N)ncnn34)c2)C1` [Example 1166, 3-{4-amino-5-[(3,3-difluoroazetidin-1-yl)methyl]pyrrolo[2,1-f][1,2,4]triazin-7-yl}-N-[(3R,4S)-4-fluoro-1-(2-hydroxy-2-methylpropanoyl)pyrrolidin-3-yl]benzamide], the IC50 was 0.0086 µM.

Take `COc1ncc(-c2ccc3c(N)ncnn23)cc1C(=O)NCCC(C)c1ccccc1` (stereo not shown) [Example 151, 5-{4-aminopyrrolo[2,1-f][1,2,4]triazin-7-yl}-2-methoxy-N-(3-phenylbutyl)pyridine-3-carboxamide]: the concentration for half-maximal inhibition (IC50) stood at 0.009 µM.

On to `COc1ncc(-c2cc(C(F)(F)F)c3c(N)ncnn23)cc1C(=O)N1CCOC(Cc2ccccc2)C1` (stereo not shown) [Example 139, 7-[5-(2-benzylmorpholine-4-carbonyl)-6-methoxypyridin-3-yl]-5-(trifluoromethyl)pyrrolo[2,1-f][1,2,4]triazin-4-amine], for which the IC50 came to 0.035 µM.

On to `Cc1cc(F)c(-c2cc(C(F)(F)F)c3c(N)ncnn23)cc1C(=O)N[C@@H]1CN(C(=O)c2ncc(Br)cc2F)C[C@@H]1F` [Example 845, 5-[4-amino-5-(trifluoromethyl)pyrrolo[2,1-f][1,2,4]triazin-7-yl]-N-[(3R,4S)-1-(5-bromo-3-fluoropyridine-2-carbonyl)-4-fluoropyrrolidin-3-yl]-4-fluoro-2-methylbenzamide], for which the half-inhibitory concentration (IC50) turned out to be 0.036 µM.

`Nc1ncnn2c(-c3ccc(OC(F)F)c(C(=O)N[C@@H]4CN(C(=O)C5CC(F)(F)C5)C[C@@H]4F)c3)cc(C(F)(F)F)c12` [Example 1095, 5-[4-amino-5-(trifluoromethyl)pyrrolo[2,1-f][1,2,4]triazin-7-yl]-N-[(3R,4S)-1-(3,3-difluorocyclobutanecarbonyl)-4-fluoropyrrolidin-3-yl]-2-(difluoromethoxy)benzamide]: the IC50 stood at 0.013 µM.

Turning to `[2H]C([2H])([2H])Oc1ncc(-c2cc(CN3CC(F)(F)C3)c3c(N)ncnn23)cc1C(=O)N[C@@H]1CN(S(=O)(=O)C2CCCCC2)C[C@@H]1F` [Example 1281, 5-{4-amino-5-[(3,3-difluoroazetidin-1-yl)methyl]pyrrolo[2,1-f][1,2,4]triazin-7-yl}-N-[(3R,4S)-1-(cyclohexanesulfonyl)-4-fluoropyrrolidin-3-yl]-2-(methoxy-d3)nicotinamide], the IC50 stood at 0.00043 µM.

Consider `Cc1ccnc(C(=O)N2C[C@H](F)[C@H](NC(=O)c3cc(-c4cc(C(F)(F)F)c5c(N)ncnn45)ccc3C)C2)c1` [Example 1023, 5-[4-amino-5-(trifluoromethyl)pyrrolo[2,1-f][1,2,4]triazin-7-yl]-N-[(3R,4S)-4-fluoro-1-(4-methylpyridine-2-carbonyl)pyrrolidin-3-yl]-2-methylbenzamide], for which the IC50 stood at 0.015 µM.

With `COc1ncc(-c2cc(C(C)=O)c3c(N)ncnn23)cc1C(=O)N[C@@H]1CN(C(=O)[C@@](C)(O)C(F)(F)F)C[C@@H]1F` [Example 1592, 5-{5-acetyl-4-aminopyrrolo[2,1-f][1,2,4]triazin-7-yl}-N-[(3R,4S)-4-fluoro-1-[(2R)-3,3,3-trifluoro-2-hydroxy-2-methylpropanoyl]pyrrolidin-3-yl]-2-methoxypyridine-3-carboxamide], the IC50 came out at 0.0061 µM.

As to `CCc1c(F)cc(-c2cc(C(F)(F)F)c3c(N)ncnn23)cc1C(=O)N[C@@H]1CN(C(=O)C2(F)CC2)C[C@@H]1F` [Example 657, 5-[4-amino-5-(trifluoromethyl)pyrrolo[2,1-f][1,2,4]triazin-7-yl]-2-ethyl-3-fluoro-N-[(3R,4S)-4-fluoro-1-(1-fluorocyclopropanecarbonyl)pyrrolidin-3-yl]benzamide], the IC50 came to 0.013 µM.

`COc1ncc(-c2cc(C(F)(F)F)c3c(N)ncnn23)cc1C(=O)Nc1nc(C(=O)NCC2CC2)co1` [Example 1301, 5-[4-amino-5-(trifluoromethyl)pyrrolo-[2,1-f][1,2,4]triazin-7-yl]-N-{4-[(cyclopropylmethyl)carbamoyl]-1,3-oxazol-2-yl}-2-methoxypyridine-3-carboxamide]: the IC50 stood at 0.298 µM.

For `Nc1ncnn2c(-c3ccc(OCC(F)(F)F)c(C(=O)N[C@@H]4CN(C(=O)C5CC5(F)F)C[C@@H]4F)c3)cc(C(F)(F)F)c12` (stereo partly drawn) [Example 1069, 5-[4-amino-5-(trifluoromethyl)pyrrolo[2,1-f][1,2,4]triazin-7-yl]-N-[(3R,4S)-1-(2,2-difluorocyclopropanecarbonyl)-4-fluoropyrrolidin-3-yl]-2-(2,2,2-trifluoroethoxy)benzamide], the IC50 was found to be 0.375 µM.

For `Nc1ncnn2c(-c3cccc(C(=O)NCCC(O)c4ccccc4)c3)cc(C(F)(F)F)c12` (stereo not shown) [Example 72, 3-[4-amino-5-(trifluoromethyl)pyrrolo[2,1-f][1,2,4]triazin-7-yl]-N-(3-hydroxy-3-phenylpropyl)benzamide], the IC50 is 0.074 µM.

`Nc1ncnn2c(-c3cccc(C(=O)N[C@@H]4CN(C(=O)C5CC(F)C5)C[C@@H]4F)c3F)cc(C(F)(F)F)c12` (stereo partly drawn) [Example 771, 3-[4-amino-5-(trifluoromethyl)pyrrolo[2,1-f][1,2,4]triazin-7-yl]-2-fluoro-N-[(3R,4S)-4-fluoro-1-(3-fluorocyclobutanecarbonyl)pyrrolidin-3-yl]benzamide]: the IC50 is 0.128 µM.

Regarding `CO[C@@H](CCNC(=O)c1cc(-c2cc(C(F)(F)F)c3c(N)ncnn23)cnc1C)c1ccc(Cl)cc1` [Example 177, 5-[4-amino-5-(trifluoromethyl)pyrrolo[2,1-f][1,2,4]triazin-7-yl]-N-[(3S)-3-(4-chlorophenyl)-3-methoxypropyl]-2-methylpyridine-3-carboxamide], the IC50 came to 0.001 µM.

Turning to `CCc1ccc(-c2cc(C(F)(F)F)c3c(N)ncnn23)cc1C(=O)N[C@@H]1CN(C(=O)C2CC(F)(F)C2)C[C@@H]1F` [Example 968, 5-[4-amino-5-(trifluoromethyl)pyrrolo[2,1-f][1,2,4]triazin-7-yl]-N-[(3R,4S)-1-(3,3-difluorocyclobutanecarbonyl)-4-fluoropyrrolidin-3-yl]-2-ethylbenzamide], the IC50 was found to be 0.0041 µM.

`COc1ncc(-c2cc(C(F)(F)F)c3c(N)ncnn23)cc1C(=O)N[C@@H]1CN(C(=O)[C@@H](O)C(C)(C)C)C[C@@H]1F` [Example 323, 5-[4-amino-5-(trifluoromethyl)pyrrolo[2,1-f][1,2,4]triazin-7-yl]-N-[(3R,4S)-4-fluoro-1-[(2S)-2-hydroxy-3,3-dimethylbutanoyl]pyrrolidin-3-yl]-2-methoxypyridine-3-carboxamide]: the IC50 was 0.086 µM.

On to `C[C@@](O)(C(=O)N1C[C@H](F)[C@H](NC(=O)c2cccc(-c3cc(CN4CC(F)(F)C4)c4c(N)ncnn34)c2)C1)C(F)(F)F` [Example 1180, 3-{4-amino-5-[(3,3-difluoroazetidin-1-yl)methyl]pyrrolo[2,1-f][1,2,4]triazin-7-yl}-N-[(3R,4S)-4-fluoro-1-[(2R)-3,3,3-trifluoro-2-hydroxy-2-methylpropanoyl]pyrrolidin-3-yl]benzamide], for which the IC50 was 0.0011 µM.

Turning to `Cc1ccc(-c2cc(C(F)(F)F)c3c(N)ncnn23)cc1C(=O)Nc1cnn(C(C)c2ccc(F)cc2)c1` (stereo not shown) [Example 1794, 5-(4-amino-5-(trifluoromethyl)pyrrolo[2,1-f][1,2,4]triazin-7-yl)-N-(1-(1-(4-fluorophenyl)ethyl)-1H-pyrazol-4-yl)-2-methylbenzamide], the IC50 is 0.001 µM.

Regarding `COc1cc(C(=O)N[C@@H]2CN(C(=O)C3(F)CC3)C[C@@H]2F)cc(-c2cc(C(F)(F)F)c3c(N)ncnn23)c1` [Example 576, 3-[4-amino-5-(trifluoromethyl)pyrrolo[2,1-f][1,2,4]triazin-7-yl]-N-[(3R,4S)-4-fluoro-1-(1-fluorocyclopropanecarbonyl)pyrrolidin-3-yl]-5-methoxybenzamide], the IC50 amounted to 0.031 µM.

With `COc1ccc(-c2cc(C(F)(F)F)c3c(N)ncnn23)cc1C(=O)N[C@@H]1CN(C(=O)C2CC2(F)F)C[C@@H]1F` (stereo partly drawn) [Example 1132, 5-[4-amino-5-(trifluoromethyl)pyrrolo[2,1-f][1,2,4]triazin-7-yl]-N-[(3R,4S)-1-(2,2-difluorocyclopropanecarbonyl)-4-fluoropyrrolidin-3-yl]-2-methoxybenzamide], the IC50 came out at 0.012 µM.

With `Nc1ncnn2c(-c3cc(C(=O)N[C@@H]4CN(C(=O)C5(F)CC5)C[C@@H]4F)c(F)cc3F)cc(C(F)(F)F)c12` [Example 779, 5-[4-amino-5-(trifluoromethyl)pyrrolo[2,1-f][1,2,4]triazin-7-yl]-2,4-difluoro-N-[(3R,4S)-4-fluoro-1-(1-fluorocyclopropanecarbonyl)pyrrolidin-3-yl]benzamide], the 50% inhibitory concentration (IC50) is 0.048 µM.
